# According to the supplement of paper PMC6609913:
# Counter-ions that a name gives are not always drawn. ± gives the standard deviation of the averaged measurements. In all, about 1,300 compounds were measured (“normalised cell viability”: median about 1, lowest 2% from about 0.14 on). This is one part of the list.
# Tested on: V-C8 (BRCA2-deficient hamster cells)
# Experiment: normalised cell viability (fraction of plate median); higher = more viable cells (less toxic)
# Settings: 5 µM
# Outline: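 BRCA2-deficient hamster V-C8 cells and BRCA2-restored V-C8 cells were plated in 96-well plates, and library drugs were added 24 h later at 5 μM in 100 μl medium. Exposure lasted 3 days in screen 1 and 6 days in screen 2, next to solvent-only wells. Viability was then read by resazurin assay, median-plate normalised and averaged across triplicate wells.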
SMILES,normalised cell viability (treatment time: 3 days),normalised cell viability (treatment time: 6 days)
CC(=O)N[C@@H](CS)C(=O)O [Acetylcysteine],1.04 ± 0.049,1.01 ± 0.15
CN(C)CCn1nnnc1SCC1=C(C(=O)O)N2C(=O)[C@@H](NC(=O)Cc3csc(N)n3)[C@H]2SC1 [Cefotiam hydrochloride],0.996 ± 0.028,1.12 ± 0.093
CNC[C@H](O)[C@@H](O)[C@H](O)[C@H](O)CO [Meglumine],0.951 ± 0.02,1 ± 0.027
Nc1ccc(S(=O)(=O)Nc2cnc3ccccc3n2)cc1 [Sulfaquinoxaline sodium salt],1.04 ± 0.024,1.11 ± 0.17
NCCCC(O)(P(=O)(O)O)P(=O)(O)O [Alendronate sodium],0.709 ± 0.1,0.515 ± 0.033
NC(=O)OCC(COC(N)=O)c1ccccc1 [Felbamate],1.07 ± 0.023,1.19 ± 0.044
C[C@H]1NC(=O)NC1=O [Methylhydantoin-5-(D)],0.968 ± 0.032,0.954 ± 0.077
Cc1ccnc(NS(=O)(=O)c2ccc(N)cc2)n1 [Sulfamerazine],1.05 ± 0.017,1.01 ± 0.013
N=C(N)NCc1cccc(I)c1 [Iobenguane sulfate],1.043 ± 0.0067,1.052 ± 0.0059
CC(C)n1c(/C=C/C(O)CC(O)CC(=O)O)c(-c2ccc(F)cc2)c2ccccc21 (centres undefined) [Fluvastatin sodium salt],0.121 ± 0.0047,0.156 ± 0.004
CC(=O)Oc1ccccc1C(=O)Oc1ccccc1C(=O)O [Acetylsalicylsalicylic acid],1.06 ± 0.02,1.04 ± 0.078
CCCCNc1cc(C(=O)O)cc(S(N)(=O)=O)c1Oc1ccccc1 [Bumetanide],1.06 ± 0.081,1.05 ± 0.065
CNC(=O)c1c(I)c(C(=O)NCC(=O)Nc2c(I)c(C(=O)O)c(I)c(C(=O)NCCO)c2I)c(I)c(N(C)C(C)=O)c1I [Ioxaglic acid],1.27 ± 0.34,1.03 ± 0.011
CC(C)NC[C@H](O)COc1cccc2ccccc12 [(S)-propranolol hydrochloride],1.06 ± 0.02,1.03 ± 0.011
OCCN1CCN(CCCN2c3ccccc3C=Cc3ccccc32)CC1 [Opipramol dihydrochloride],1.05 ± 0.028,1.02 ± 0.027
CC(=O)CCCCn1c(=O)c2c(ncn2C)n(C)c1=O [Pentoxifylline],1.17 ± 0.067,1.05 ± 0.027
CN1C(=O)OC(C)(C)C1=O [Trimethadione],1.22 ± 0.09,1.06 ± 0.05
CN(C/C=C/c1ccccc1)Cc1cccc2ccccc12 [Naftifine hydrochloride],0.199 ± 0.019,0.219 ± 0.0077
O=C(NCCN1CCOCC1)c1ccc(Cl)cc1 [Moclobemide],1.06 ± 0.044,1.03 ± 0.037
CN(C)CCCSC(=N)N [Dimaprit dihydrochloride],1.02 ± 0.029,0.988 ± 0.011
C[C@H](Cc1cc2c(c(C(N)=O)c1)N(CCCO)CC2)NCCOc1ccccc1OCC(F)(F)F [Silodosin],0.935 ± 0.017,0.949 ± 0.096

SMILES,normalised cell viability (treatment time: 3 days),normalised cell viability (treatment time: 6 days)
Cc1onc(-c2c(F)cccc2Cl)c1C(=O)N[C@@H]1C(=O)N2[C@@H]1SC(C)(C)[C@@H]2C(=O)O [Flucloxacillin sodium],0.997 ± 0.051,1.06 ± 0.095
CCN1CCCC(OC(=O)C(c2ccccc2)c2ccccc2)C1 (centres undefined) [Piperidolate hydrochloride],1.18 ± 0.22,0.998 ± 0.039
NS(=O)(=O)c1cc(Cl)c(Cl)c(S(N)(=O)=O)c1 [Dichlorphenamide],1.09 ± 0.038,0.984 ± 0.06
CCCCCNC(=N)N/N=C/c1c[nH]c2ccc(OC)cc12 [Tegaserod maleate],0.124 ± 0.011,0.164 ± 0.016
C[C@@H]1C[C@H]2[C@@H]3C[C@H](F)C4=CC(=O)C=C[C@]4(C)[C@@]3(Cl)[C@@H](O)C[C@]2(C)[C@H]1C(=O)COC(=O)C(C)(C)C [Clocortolone pivalate],0.897 ± 0.043,0.913 ± 0.038
CNCCCC12CCC(c3ccccc31)c1ccccc12 [Maprotiline hydrochloride],0.987 ± 0.015,0.8 ± 0.022
OC(c1cc(C(F)(F)F)nc2c(C(F)(F)F)cccc12)C1CCCCN1 (centres undefined) [Mefloquine hydrochloride],0.153 ± 0.016,0.708 ± 0.074
CCN(CC)C(=O)/C(C#N)=C/c1cc(O)c(O)c([N+](=O)[O-])c1 [Entacapone],0.957 ± 0.024,1.06 ± 0.059
C[C@]12C=CC(=O)C=C1CC[C@H]1[C@@H]3C[C@@H](O)[C@](O)(C(=O)CO)[C@@]3(C)C[C@H](O)[C@@]12F [Triamcinolone],1.06 ± 0.046,0.979 ± 0.038
CC1(C)O[C@@H]2C[C@H]3[C@@H]4CCC5=CC(=O)CC[C@]5(C)[C@@]4(F)[C@@H](O)C[C@]3(C)[C@]2(C(=O)CCl)O1 [Halcinonide],0.953 ± 0.023,0.913 ± 0.052
CC(=O)O[C@H]1C[C@@H]2CC[C@@H]3[C@H](CC[C@@]4(C)[C@H]3C[C@H]([N+]3(C)CCCCC3)[C@@H]4OC(C)=O)[C@@]2(C)C[C@@H]1N1CCCCC1 [Vecuronium bromide],1.01 ± 0.047,1.04 ± 0.036
C[C@@H](O)[C@H]1C(=O)N2C(C(=O)O)=C(S[C@@H]3CN[C@H](C(=O)N(C)C)C3)[C@H](C)[C@H]12 [Meropenem],0.978 ± 0.12,1.17 ± 0.2
NC(=O)c1cnccn1 [Pyrazinamide],1.12 ± 0.057,1.05 ± 0.071
O=C(CCNNC(=O)c1ccncc1)NCc1ccccc1 [Nialamide],1.1 ± 0.067,0.952 ± 0.045
N/C(=N\C(=O)c1nc(Cl)c(N)nc1N)NCc1ccccc1 [Benzamil hydrochloride],0.819 ± 0.015,0.833 ± 0.056
Cc1nc2ccccn2c(=O)c1CCN1CCC(C(=O)c2ccc(F)cc2)CC1 [Pirenperone],0.963 ± 0.064,0.999 ± 0.048
CSc1nc2cc(Cl)c(Oc3cccc(Cl)c3Cl)cc2[nH]1 [Triclabendazole],0.196 ± 0.015,0.21 ± 0.021
COc1cccc2c1C(=O)c1c(O)c3c(c(O)c1C2=O)C[C@@](O)(C(=O)CO)C[C@@H]3O[C@H]1C[C@H](N)[C@@H](O)[C@H](C)O1 [Epirubicin hydrochloride],0.123 ± 0.013,0.163 ± 0.016
CCCN(CCC)CCc1cccc2c1CC(=O)N2 [Ropinirole HCl],1.04 ± 0.065,1.06 ± 0.054
CC(=O)O[C@H]1C(=O)[C@@]2(C)[C@H]([C@H](OC(=O)c3ccccc3)[C@]3(O)C[C@H](OC(=O)[C@H](O)[C@@H](NC(=O)c4ccccc4)c4ccccc4)C(C)=C1C3(C)C)[C@]1(OC(C)=O)CO[C@@H]1C[C@@H]2O [Paclitaxel],0.193 ± 0.01,0.199 ± 0.0046
C/C=C(/C(=C/C)c1ccc(O)cc1)c1ccc(O)cc1 [Dienestrol],0.968 ± 0.027,0.89 ± 0.11
